Measurements reported in article PMC6890249.
Results are given in words; binding and its absence hold for the method and conditions named. In cells and extracts the contact can be indirect. Some binding calls cover weakened binding; strength is not graded here. For some of these results: Tags and fused reporters may be left off the sequences shown.

By UniProt entry, the sequences of proteins in these tests, tags left out. Where a name states a change or a piece, a line headed by the entry shows the natural chain unless it says otherwise. Chains listed by the source or under a name are the forms on record and can include a tag or linker. Residues count along the entry.
UniProt Q9P0L2: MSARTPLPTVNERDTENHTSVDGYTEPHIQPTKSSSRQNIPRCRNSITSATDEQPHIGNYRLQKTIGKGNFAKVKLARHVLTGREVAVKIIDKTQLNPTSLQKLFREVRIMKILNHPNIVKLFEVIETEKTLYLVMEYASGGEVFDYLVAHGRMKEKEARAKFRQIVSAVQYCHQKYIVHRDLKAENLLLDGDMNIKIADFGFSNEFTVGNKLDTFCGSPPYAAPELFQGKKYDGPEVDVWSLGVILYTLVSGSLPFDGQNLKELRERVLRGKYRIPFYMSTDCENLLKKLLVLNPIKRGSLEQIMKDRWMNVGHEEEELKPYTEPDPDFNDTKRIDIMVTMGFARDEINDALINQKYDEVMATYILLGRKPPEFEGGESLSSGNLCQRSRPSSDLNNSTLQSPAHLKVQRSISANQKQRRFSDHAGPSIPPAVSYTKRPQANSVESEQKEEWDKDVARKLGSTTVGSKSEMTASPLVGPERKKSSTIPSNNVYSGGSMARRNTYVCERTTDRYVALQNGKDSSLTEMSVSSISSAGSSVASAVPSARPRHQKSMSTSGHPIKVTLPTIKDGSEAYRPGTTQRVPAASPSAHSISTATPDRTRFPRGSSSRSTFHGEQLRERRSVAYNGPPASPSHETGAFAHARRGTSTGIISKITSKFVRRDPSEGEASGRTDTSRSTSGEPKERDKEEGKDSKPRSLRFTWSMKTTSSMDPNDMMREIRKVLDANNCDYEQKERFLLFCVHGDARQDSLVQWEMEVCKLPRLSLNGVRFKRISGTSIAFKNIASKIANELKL
UniProt Q7KZI7: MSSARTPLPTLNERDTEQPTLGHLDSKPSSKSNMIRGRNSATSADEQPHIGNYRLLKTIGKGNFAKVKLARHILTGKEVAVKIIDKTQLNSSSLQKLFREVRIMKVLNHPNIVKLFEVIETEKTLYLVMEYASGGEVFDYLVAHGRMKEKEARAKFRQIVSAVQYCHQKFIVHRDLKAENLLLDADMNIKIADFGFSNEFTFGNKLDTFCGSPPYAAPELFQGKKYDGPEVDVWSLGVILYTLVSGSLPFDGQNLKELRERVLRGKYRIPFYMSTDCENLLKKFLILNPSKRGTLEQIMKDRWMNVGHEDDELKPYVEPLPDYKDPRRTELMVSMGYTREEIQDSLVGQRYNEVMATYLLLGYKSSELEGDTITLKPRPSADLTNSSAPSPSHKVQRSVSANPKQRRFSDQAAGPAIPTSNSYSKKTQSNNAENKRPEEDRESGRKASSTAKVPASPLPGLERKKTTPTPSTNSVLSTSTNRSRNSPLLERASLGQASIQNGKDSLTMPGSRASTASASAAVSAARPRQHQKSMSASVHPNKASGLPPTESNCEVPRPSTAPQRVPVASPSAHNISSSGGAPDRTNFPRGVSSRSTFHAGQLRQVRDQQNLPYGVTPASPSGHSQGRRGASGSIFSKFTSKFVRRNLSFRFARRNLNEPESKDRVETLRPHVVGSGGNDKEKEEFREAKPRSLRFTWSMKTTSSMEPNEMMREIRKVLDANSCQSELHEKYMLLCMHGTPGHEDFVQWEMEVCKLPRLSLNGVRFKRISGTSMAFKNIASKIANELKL
FLAG-tagged MARK2 2–307 (N-terminal kinase domain of MARK2): residues 2-307 of Q7KZI7
FLAG-tagged MARK2 307–788 (C-terminus of MARK2, starting at the UBA domain): residues 307-788 of Q7KZI7
FLAG-tagged MARK3 (hMARK3 TV3) (P27448-3, form named): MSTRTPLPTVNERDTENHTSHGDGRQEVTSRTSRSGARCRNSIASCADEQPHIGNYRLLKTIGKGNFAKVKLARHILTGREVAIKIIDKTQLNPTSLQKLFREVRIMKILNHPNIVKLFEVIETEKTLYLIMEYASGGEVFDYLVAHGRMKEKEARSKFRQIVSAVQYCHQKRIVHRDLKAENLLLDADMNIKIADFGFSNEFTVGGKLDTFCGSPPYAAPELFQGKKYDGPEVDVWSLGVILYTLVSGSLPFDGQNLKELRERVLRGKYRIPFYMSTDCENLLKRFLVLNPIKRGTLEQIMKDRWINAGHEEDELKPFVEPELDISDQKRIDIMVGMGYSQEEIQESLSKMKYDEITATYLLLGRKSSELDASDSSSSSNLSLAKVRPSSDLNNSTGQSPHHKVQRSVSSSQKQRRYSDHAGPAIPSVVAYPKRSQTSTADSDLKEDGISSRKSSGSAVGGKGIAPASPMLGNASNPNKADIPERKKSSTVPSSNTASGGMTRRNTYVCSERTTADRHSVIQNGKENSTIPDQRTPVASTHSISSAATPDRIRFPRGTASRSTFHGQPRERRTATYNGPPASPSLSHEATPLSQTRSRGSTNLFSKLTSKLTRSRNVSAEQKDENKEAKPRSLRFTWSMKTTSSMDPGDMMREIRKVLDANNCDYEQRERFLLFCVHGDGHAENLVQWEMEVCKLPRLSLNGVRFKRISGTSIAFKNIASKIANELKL

How the values were obtained:
[1] = molecular target: T1, FLAG-tagged CLASP1 (H. sapiens CLASP1 isoform 2) (human) (UniProt Q7Z460); assay: co-IP; FLAG-tagged CLASP1 coexpressed with HA-tagged kinases in HEK293T; anti-FLAG M2 magnetic beads, 3xFLAG peptide elution; Western blot
T1 sequence: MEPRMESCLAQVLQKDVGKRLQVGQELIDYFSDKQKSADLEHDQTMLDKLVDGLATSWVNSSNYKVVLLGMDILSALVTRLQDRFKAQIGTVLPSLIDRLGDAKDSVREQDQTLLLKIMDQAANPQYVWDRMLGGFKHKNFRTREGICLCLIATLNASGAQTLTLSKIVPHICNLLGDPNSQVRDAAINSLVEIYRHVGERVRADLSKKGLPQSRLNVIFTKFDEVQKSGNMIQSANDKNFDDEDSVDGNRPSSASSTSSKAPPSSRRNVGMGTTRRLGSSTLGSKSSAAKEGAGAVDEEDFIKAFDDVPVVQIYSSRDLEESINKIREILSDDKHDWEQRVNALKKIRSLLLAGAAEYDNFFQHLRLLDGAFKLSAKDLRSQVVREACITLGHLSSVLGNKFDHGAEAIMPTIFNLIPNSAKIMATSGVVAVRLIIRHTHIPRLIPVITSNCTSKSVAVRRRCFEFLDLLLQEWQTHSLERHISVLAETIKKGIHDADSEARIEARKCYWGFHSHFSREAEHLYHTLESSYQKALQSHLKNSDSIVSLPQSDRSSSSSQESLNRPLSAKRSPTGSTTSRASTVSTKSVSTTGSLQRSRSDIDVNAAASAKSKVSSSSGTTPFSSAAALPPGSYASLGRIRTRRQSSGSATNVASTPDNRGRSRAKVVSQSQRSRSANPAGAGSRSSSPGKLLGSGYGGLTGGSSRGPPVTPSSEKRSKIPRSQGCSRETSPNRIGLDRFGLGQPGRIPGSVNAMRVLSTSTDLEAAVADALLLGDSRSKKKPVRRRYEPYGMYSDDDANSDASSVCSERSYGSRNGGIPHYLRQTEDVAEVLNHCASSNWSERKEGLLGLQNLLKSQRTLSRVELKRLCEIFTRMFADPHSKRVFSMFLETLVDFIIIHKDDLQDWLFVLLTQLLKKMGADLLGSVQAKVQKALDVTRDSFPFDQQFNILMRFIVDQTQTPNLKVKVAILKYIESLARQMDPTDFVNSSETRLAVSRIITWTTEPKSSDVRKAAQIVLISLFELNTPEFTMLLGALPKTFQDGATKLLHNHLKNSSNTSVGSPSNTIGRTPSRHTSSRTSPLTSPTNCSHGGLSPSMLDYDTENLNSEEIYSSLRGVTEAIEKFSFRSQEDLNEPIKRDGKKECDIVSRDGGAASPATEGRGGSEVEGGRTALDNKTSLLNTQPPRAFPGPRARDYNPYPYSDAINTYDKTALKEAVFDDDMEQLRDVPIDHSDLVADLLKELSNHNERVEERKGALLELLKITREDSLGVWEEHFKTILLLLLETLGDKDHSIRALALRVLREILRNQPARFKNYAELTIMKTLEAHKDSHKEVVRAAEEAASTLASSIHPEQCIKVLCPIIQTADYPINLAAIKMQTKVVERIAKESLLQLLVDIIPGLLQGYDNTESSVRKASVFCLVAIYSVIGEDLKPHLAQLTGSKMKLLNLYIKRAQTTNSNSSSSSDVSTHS

[2] = molecular target: FLAG-tagged MARK1 (hMARK1 TV2) (human) (UniProt Q9P0L2); assay: co-IP; FLAG-tagged kinase overexpressed in HEK293T, 1 h 1 μM Carfilzomib (in some panels DMSO or 10 μM Fsk for 1 h); lysis in 50 mM Tris, 150 mM NaCl, 10% glycerol, 1% Igepal, pH 8.0; anti-FLAG M2 magnetic beads, 3xFLAG peptide elution; endogenous CLASP1 and 14-3-3 detected by Western blot
[3] = molecular target: FLAG-tagged MARK2 (hMARK2 TV4, MAP/microtubule affinity-regulating kinase 2, 1–788) (human) (UniProt Q7KZI7); assay: as above
[4] = molecular target: FLAG-tagged MARK2 2–307 (N-terminal kinase domain of MARK2) (human) (UniProt Q7KZI7); assay: as above
[5] = molecular target: FLAG-tagged MARK2 307–788 (C-terminus of MARK2, starting at the UBA domain) (human) (UniProt Q7KZI7); assay: as above
[6] = molecular target: FLAG-tagged MARK3 (hMARK3 TV3) (human) (UniProt P27448); assay: as above

HA-tagged MARK3 (hMARK3 TV3) (from UniProt P27448-3 1-729) (enzyme)
binding [1]: binds

HA-tagged MARK1 (hMARK1 TV2) (from UniProt Q9P0L2-1 1-795) (enzyme)
binding [1]: binds

CLIP-associating protein 1 (CLASP1), endogenous (from UniProt Q7Z460 1-1538)
binding [2]: binds | binding [3]: binds | binding [4]: no binding | binding [5]: binds | binding [6]: binds
